{
  "source": "paper PMC4759522",
  "about": "“A fragment merging approach towards the development of small molecule inhibitors of Mycobacterium tuberculosis EthR for use as ethionamide boosters” (Organic & Biomolecular Chemistry, 2016)",
  "origin": "cited, not measured here",
  "tested_on": "M. tuberculosis infected macrophages",
  "design": "method as in PMID 24313835",
  "conditions": "reported previously; cited from earlier work",
  "data": [
    {"smiles": "O=C(CCC1CCCC1)N1CCCC1", "note": "[Compound 1]", "values": [
      {"measurement": "ability to boost ethionamide", "value": "boost ethionamide"}
    ]}
  ]
}
